Reference: patent US20140363438A1, “NEUREGULIN ANTIBODIES AND USES THEREOF” (Genentech, Inc., priority 2011, published 2014)

B1: YW526.90.28: affinity matured anti-NRG1 antibody; VH SEQ ID NO: 63, VL SEQ ID NO: 53; heavy chain SEQ ID NO: 74, light chain SEQ ID NO: 75 (antibody)
heavy: EVQLVESGGGLVQPGGSLRLSCAASGFTFSDIAMSWVRQAPGKGLEWVSWIYPSGGNTYYADSVKGRFTISADTSKNTAYLQMNSLRAEDTAVYYCARSYILSQKSATWAFDYWGQGTLVTVSS[skipping human IgG1 constant region]
light: DIQMTQSPSSLSASVGDRVTITCRASQSISSYLAWYQQKPGKAPKLLIYGASSRASGVPSRFSGSGSGTDFTLTISSLQPEDFATYYCQQSYSTPITFGQGTKVEIKRTVAAPSVFIFPPSDEQLKSGTASVVCLLNNFYPREAKVQWKVDNALQSGNSQESVTEQDSKDSTYSLSSTLTLSKADYEKHKVYACEVTHQGLSSPVTKSFNRGEC
modifications: Heavy chain; Light chain
B2: YW538.24.71: affinity matured anti-NRG1 antibody; VH SEQ ID NO: 21, VL SEQ ID NO: 26; heavy chain SEQ ID NO: 72, light chain SEQ ID NO: 73 (antibody)
heavy: EVQLVESGGGLVQPGGSLRLSCAASGFTFSGTWIHWVRQAPGKGLEWVAAITPADGSTNYADSVKGRFTISADTSKNTAYLQMNSLRAEDTAVYYCATYMFAMDYWGQGTLVTVSS[skipping human IgG1 constant region]
light: DIQMTQSPSSLSASVGDRVTITCRASQDVSISLAWYQQKPGKAPKLLIYGASNLESGVPSRFSGSGSGTDFTLTISSLQPEDFATYYCQQHYTLPFTFGQGTKVEIKRTVAAPSVFIFPPSDEQLKSGTASVVCLLNNFYPREAKVQWKVDNALQSGNSQESVTEQDSKDSTYSLSSTLTLSKADYEKHKVYACEVTHQGLSSPVTKSFNRGEC
modifications: Heavy chain; Light chain

Legend:
HB-EGF [1] = target: T1, HB-EGF (Homo sapiens, UniProt Q99075); test: Specificity ELISA, binding to HB-EGF
T1 sequence (Q99075 63-148 limits assumed, species assumed): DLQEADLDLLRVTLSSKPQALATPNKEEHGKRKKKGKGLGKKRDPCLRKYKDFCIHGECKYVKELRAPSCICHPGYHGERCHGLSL
Procedure: (§1) To confirm antibody specificity, binding of the antibodies to the related EGF family ligands, EGF, HB-EGF, and Betacellulin (BTC) was assessed.

Betacellulin (BTC) = target: T2, Betacellulin (BTC) (Homo sapiens, UniProt P35070); test: Specificity ELISA, binding to Betacellulin
T2 sequence (P35070 32-178): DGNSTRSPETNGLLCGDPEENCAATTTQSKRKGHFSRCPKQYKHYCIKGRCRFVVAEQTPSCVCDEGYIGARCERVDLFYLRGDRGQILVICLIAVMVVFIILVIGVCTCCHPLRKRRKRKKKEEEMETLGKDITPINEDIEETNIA
Procedure: as §1

EGF = EGF (Homo sapiens, UniProt P01133); test: Specificity ELISA, binding to EGF
Chain of EGF (P01133 971-1023 limits assumed, species assumed): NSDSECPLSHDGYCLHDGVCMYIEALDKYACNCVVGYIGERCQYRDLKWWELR
Procedure: as §1

BTC = target: T3, BTC (Homo sapiens, UniProt P35070); test: BTC induced HER4 phosphorylation, cell-based, Western blot
T3 sequence (P35070 32-178): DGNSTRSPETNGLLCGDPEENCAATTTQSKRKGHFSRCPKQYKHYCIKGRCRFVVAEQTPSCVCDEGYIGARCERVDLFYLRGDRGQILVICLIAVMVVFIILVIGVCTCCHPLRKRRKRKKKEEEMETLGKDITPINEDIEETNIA
Procedure: (§2) NRG1, HB-EGF and BTC are also ligands for the HER4 receptor. Therefore, the ability of YW538.24.71 and YW526.90.28 to inhibit BTC and HB EGF-induced HER4 phosphorylation was analyzed in a cell-based assay.

NRG1 autocrine signaling [2] = test: NRG1 autocrine signaling, Western blot, mouse cells; type: cell-based; details: 0.1% FBS, 48 hours
Procedure: (§3) Cells were grown in media containing 0.1% FBS+antibodies as indicated for 48 hours. Cells were washed 3 times with 1×PBS and lysed with RIPA buffer containing protease and phosphatase inhibitors. Lysates were collected, and processed for western blotting.

NRG1 autocrine signaling [3] = test: NRG1 autocrine signaling, Western blot, human cells; type: cell-based; details: 0.1% FBS, 48 hours
Procedure: as §3

LKPH2 cells = test: NSCLC LKPH2 tumor growth in athymic nude mice; type: in vivo, mouse; details: with gemcitabine 100 mg/kg every four days for four doses, FIG. 23
Procedure: The ability of anti-NRG1 antibodies to inhibit tumor growth in a mouse model system for non-small cell lung cancer (NSCLC) was determined Athymic nude mice were inoculated subcutaneously into the right flank with a) 20 million H596 cells or b) 2 million LKPH2 cells. When tumors reached a mean of 150-250 mm3 animals were grouped out into treatment groups with equivalent mean starting tumor volumes. Animals were treated as follows:
Group 1: Vehicle: Anti-ragweed, 20 mg/kg, IP qwk for study duration+Carboplatin buffer, IP q4d×5+Paclitaxel buffer, IV q4d x 5. Group 2: Y538.24.71: Y538.24.71, 20 mg/kg, IP qwk for study duration+Carboplatin buffer, IP q4d×5+Paclitaxel buffer, IV q4d×5. Group 3: Chemo+Ragweed: Anti-ragweed, 20 mg/kg, IP qwk for study duration+Carboplatin, 60 mg/kg IP q4d×5+Paclitaxel 20 mg/kg, IV q4d x 5. Group 4: Chemo+538.24.71: 538.24.71, 20 mg/kg, IP qwk for study duration+Carboplatin, 60 mg/kg IP q4d×5+Paclitaxel 20 mg/kg, IV q4d x 5.
Tumor Growth curves and a Kaplan-Meier curve were generated as described in Example 15. FIGS. 21 and 22.
In this study, gemcitabine, at 100 mg/kg, was administered to the mice every four days for four doses. Tumor Growth curves and Kaplan-Meier curve were generated as in Example 15.

HB-EGF [4] = target: T1, HB-EGF; test: HB-EGF induced HER4 phosphorylation, cell-based, Western blot
Procedure: as §2

NRG1-B = NRG1-B induced HER4 phosphorylation, cell-based, Western blot
Procedure: as §2

Row | Molecule | binding to HB-EGF (HB-EGF [1]) | binding to Betacellulin (BTC) (Betacellulin (BTC)) | binding to EGF (EGF) | BTC induced HER4 phosphorylation (BTC) | phospho-AKT levels (NRG1 autocrine signaling [2]) | phospho-Her3 levels (NRG1 autocrine signaling [2]) | phospho-AKT levels (NRG1 autocrine signaling [3]) | phospho-Her3 levels (NRG1 autocrine signaling [3]) | response of LKPH2 tumors to gemcitabine treatment (LKPH2 cells) | HB-EGF induced HER4 phosphorylation (HB-EGF [4]) | NRG1-B induced HER4 phosphorylation (NRG1-B)
1 | B1 | no detectable binding | no detectable binding | no detectable binding |  |  |  |  |  |  |  | 
2 | B2 | no detectable binding | no detectable binding | no detectable binding | no effect | dose-dependent decreases | dose-dependent decreases | dose-dependent decreases | dose-dependent decreases | enhanced the response | no effect | potentially inhibited
